The supplement of paper PMC12340641
The full ranking holds about 1,000 compounds; the median of “relative growth in counter assay (no AraC = 100%, AraC + DMSO = 0%)” is about -1.1, and the highest 2% start at about 20. Some of the results follow.

The compounds below were run on HEK293FT dCK*-only (assay: relative growth in counter assay (no AraC = 100%, AraC + DMSO = 0%); higher = more growth rescue independent of IKZF1). Conditions: compound concentration: 5 uM; AraC concentration: 0.3 uM; overnight pretreatment + 4 days AraC.
Method: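 Growth recovery screen of the molecular-glue-like (Specs) library. HEK293FT cells expressing a dCK*-IKZF1 fusion (primary) or dCK* alone (counter) were pretreated overnight with compound at 5 uM, then given 0.3 uM AraC for 4 days. Hoechst nuclei were counted by imaging. Primary: normalised to pomalidomide (100%) and DMSO (0%), mean of 2 replicates. Counter: normalised to no-AraC (100%) and AraC+DMSO (0%), single replicate.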

Row | SMILES | relative growth in counter assay [%]
1 | Cc1cnc(Nc2cccc(C3CN(C(=O)c4c(C(C)C)noc4C)CCO3)n2)s1 (stereo unspecified) | -6.3
2 | CCCOc1ccc(/C=C/C(=O)Nc2ccc(S(=O)(=O)Nc3cc(C)nc(C)n3)cc2)cc1OC | -6.49
3 | CCOCC(=O)Nc1ccc(S(=O)(=O)Nc2ncccn2)cc1 | -2.18
4 | Cc1nc(Nc2cccc(C3CCN(CC(=O)N4CCC(C)CC4)CC3)n2)sc1C | 26.6
5 | Cc1cnc(Nc2cccc(C3CN(C(=O)c4ccccc4)CCO3)n2)s1 (stereo unspecified) | -9.19
6 | COc1cccc(OC)c1C(=O)N1CCOC(c2cccc(Nc3nc(C)cs3)n2)C1 (stereo unspecified) | 10.3
7 | CC(=O)Nc1ccc(-c2csc(Nc3ccc(Cl)cn3)n2)cc1 | -4.91
8 | O=C(/C=C/c1cccnc1)N1CCC(c2cc3ccccc3c(Nc3nccs3)n2)CC1 | -20.5
9 | O=C(C1CCCCC1)N1CCOC(c2cccc(Nc3ncc(Cc4ccccc4F)s3)n2)C1 (stereo unspecified) | 6.73
10 | CC(=O)Nc1cccc(-c2csc(Nc3cccc(C)n3)n2)c1 | 5.94
11 | Cc1cnc(Nc2cccc(C3CCN(C(=O)C4CCCCC4)CC3)n2)s1 | -18.4
12 | CCOc1ccc(C(=O)Nc2ccc(S(=O)(=O)Nc3nc(C)cc(C)n3)cc2)cc1 | 8.2
13 | CCOCc1ccc(C(=O)N2CCCC2c2cccc(Nc3nc(C)c(C)s3)n2)cc1 (stereo unspecified) | 4.74
14 | Nc1cccc(Oc2ccc3c(c2)C(=O)N(c2cccc4ccccc24)C3=O)c1 | 2.85
15 | Cc1ccc2[nH]nc(C(=O)N3CCOC(c4cccc(Nc5ncc(Cc6ccccc6)s5)n4)C3)c2c1 (stereo unspecified) | -22.6
16 | CC(C)C(=O)Nc1ccc(S(=O)(=O)Nc2ncccn2)cc1 | 1.44
17 | COc1ccc(/C=C/C(=O)NC(=S)Nc2ccc(S(=O)(=O)Nc3nc(C)cc(C)n3)cc2)cc1OC | 2.77
18 | Cc1cnc(Nc2cccc(C3CN(C(=O)C4CCCC4)CCO3)n2)s1 (stereo unspecified) | -17
19 | O=C1CCC(N2C(=O)c3ccc(N4CCN(C5CCC(C(=O)O)CC5)CC4)cc3C2=O)C(=O)N1 (stereo unspecified) | -2.56
20 | Cc1c(Cl)cccc1NC(=O)CSc1nnc2c(n1)[nH]c1ccc(F)cc12 | 14
21 | Cc1cnc(Nc2cccc(C3CN(C(=O)C45CC6CC(CC(C6)C4)C5)CCO3)n2)s1 (stereo unspecified) | -1.75

Row | SMILES | relative growth in counter assay [%]
22 | COc1cc(NS(=O)(=O)c2ccc(NC(C)=O)cc2)nc(OC)n1 | -2.85
23 | CN(CCCN1CCNCC1)c1cccc2c1C(=O)N(C1CCC(=O)NC1=O)C2=O (stereo unspecified) | 0.92
24 | CCc1ccccc1OCC(=O)Nc1ccc(S(=O)(=O)Nc2ncccn2)cc1 | 8.22
25 | CCCOc1ccc(C(=O)Nc2ccc(S(=O)(=O)Nc3ncccn3)cc2)cc1 | 8.13
26 | Cc1cc(Cl)ccc1OC(C)C(=O)Nc1ccc(S(=O)(=O)Nc2ccccn2)cc1 (stereo unspecified) | 10.4
27 | Cc1cc(C)c2[nH]c3nc(SCC(=O)Nc4cccc(Cl)c4C)nnc3c2c1 | -20.1
28 | O=C(Nc1ccc(S(=O)(=O)Nc2ccccn2)cc1)c1cc2ccccc2o1 | -2.82
29 | O=C1CCCC/C1=C/Nc1ccc(S(=O)(=O)Nc2cnc3ccccc3n2)cc1 | -1.17
30 | Cc1cnc(Nc2cccc(C3CN(C(=O)Cn4c(C(F)(F)F)nc5ccccc54)CCO3)n2)s1 (stereo unspecified) | 8.07
31 | COc1ccc(C(=O)Nc2ccc(S(=O)(=O)Nc3ccccn3)cc2)cc1 | 2.7
32 | Cc1cc(C)nc(NS(=O)(=O)c2ccc(NC(=O)c3ccc(S(=O)(=O)N(C)C)cc3)cc2)n1 | -6.06
33 | Cc1cc(NS(=O)(=O)c2ccc(NC(=O)c3cccnc3)cc2)nc(C)n1 | 4.96
34 | O=C(CC1C=CCC1)N1CCC(c2cccc(Nc3nccs3)n2)CC1 (stereo unspecified) | -14.5
35 | Cc1cnc(Nc2cccc(C3CN(C(=O)C4CCCO4)CCO3)n2)s1 (stereo unspecified) | -14.9
36 | Cc1ccnc(NS(=O)(=O)c2ccc(N3C(=O)C4CC=CCC4C3=O)cc2)n1 (stereo unspecified) | -1.29
37 | CC(=O)Nc1ccc(S(=O)(=O)Nc2nc(C)cc(C)n2)cc1 | -0.14
38 | Cc1cc(C)n(CC(=O)N2CCOC(c3cccc(Nc4ncc(C)s4)n3)C2)c(=O)n1 (stereo unspecified) | -3.56
39 | COCC(=O)N[C@H]1CCC[C@H]1C(=O)N1CCOC(c2cccc(Nc3ncc(C)s3)n2)C1 (stereo partly specified) | -8.62
40 | Cc1cnc(Nc2cccc(C3CCN(C(=O)C4(NC(=O)C(C)(C)C)CCCCC4)CC3)n2)s1 | -20.5
41 | O=C(COc1cccc(Cl)c1)Nc1ccc(S(=O)(=O)Nc2ncccn2)cc1 | -0.5
42 | CC(C)Nc1nc(NC(C)C)nc(NS(=O)(=O)c2ccc(N)cc2)n1 | 3.97

Row | SMILES | relative growth in counter assay [%]
43 | CCC(=O)Nc1cccc(C(=O)Nc2ccc(S(=O)(=O)Nc3ncccn3)cc2)c1 | -3.85
44 | CC(C)(C)c1ccccc1OCC(=O)Nc1ccc(S(=O)(=O)Nc2ncccn2)cc1 | -1.93
45 | CCCc1cnc(Nc2cccc(C3CCN(C(=O)C4CCCCC4)CC3)n2)s1 | -19.4
46 | CCN1C(=O)c2cccc3c(S(=O)(=O)Nc4ccccn4)ccc1c23 | -13.4
47 | CC(=O)N1CCC(Cc2cccc(Nc3ncc(C)s3)n2)CC1 | -18.5
48 | Cc1cc(OCC(=O)N2CCCC2c2cccc(Nc3nccs3)n2)c2ccccc2n1 (stereo unspecified) | 2.35
49 | O=C(Nc1ccc(S(=O)(=O)Nc2ccccn2)cc1)c1cccc(Cl)c1 | -0.42
50 | CC(C)C(=O)Nc1cccc(C(=O)Nc2ccc(S(=O)(=O)Nc3ncccn3)cc2)c1 | 3.52
51 | CCOC(=O)CCC(=O)Nc1ccc(S(=O)(=O)Nc2cc(OC)nc(OC)n2)cc1 | 2.87
52 | Cc1cnc(Nc2cccc(C3CCN(C(=O)C4C5C=CC(C5)C4C(=O)NCCO)CC3)n2)s1 (stereo unspecified) | -24.7
53 | Cc1cc(C)nc(NS(=O)(=O)c2ccc(NC(=O)COc3ccc(Cl)cc3)cc2)n1 | 1.7
54 | CN1C(=O)c2cccc3c(S(=O)(=O)Nc4ccccn4)ccc1c23 | -9.38
55 | Cc1cccc(NS(=O)(=O)c2ccc([N+](=O)[O-])cc2)n1 | -2.71
56 | Cc1cnc(Nc2cccc(C3CCCN3C(=O)c3ccccc3)n2)s1 (stereo unspecified) | 8.59
57 | Cc1cnc(Nc2cccc(C3CN(C(=O)c4nccn4C)CCO3)n2)s1 (stereo unspecified) | 2.18
58 | CCCc1cnc(Nc2cccc(C3CCN(C(=O)[C@H]4CCCC[C@H]4C(N)=O)CC3)n2)s1 | -23.6
59 | Cc1nc(Nc2cccc(C3CCN(C(=O)Cc4ccc(F)cc4)CC3)n2)sc1C | 4.31
60 | Cc1ccc(OCC(=O)Nc2ccc(S(=O)(=O)Nc3ncccn3)cc2)c(C)c1 | -1.23
61 | CCCc1cnc(Nc2cccc(C3CCN(C(=O)c4n[nH]c5ccc(C)cc45)CC3)n2)s1 | 4.01
